Data reported in PubChem BioAssay AID588855 (National Center for Advancing Translational Sciences (NCATS), 2011).
Hit rate of the full screen: of about 410,000 compounds, about 5,000 (1.2%) were called active. Inconclusive results, whose numbers are uncertain, are shown with a selection of clear calls. The call rests on the fitted dose curve; in most records, active means well fitted inhibition curve with a large enough effect; inconclusive means small, poorly fitted or top-dose-only effect; inactive means no such curve, though single readings can be large or run the other way. Potencies of inconclusive entries are doubtful fits and often do not repeat.

Experiment: qHTS for Inhibitors of TGF-b; further: nearly all actives have a fitted effect of over 65% in size
Settings: HepG2 CAGA-GFP TGF-b/SMAD3 reporter, GFP fluorescence, 18 h, TGF-beta stimulated, 500 pg/mL final; series mostly up to 46.1 µM; activity, negative = inhibition: at the top concentration
Summary of the method: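 Cell-based qHTS in HEPG2 carrying a CAGA-GFP Smad reporter; compounds added before 500 pg/mL final TGF-beta, 18 h incubation at 37 degrees C, GFP fluorescence quantified per cell by imaging cytometry.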
On the % scale 0 is the no-effect control and ±100 the full control effect; potency means the concentration at half of the fitted maximal effect; tags describe the fitted curve by direction and shape.

| Compound | Potency | activity, negative = inhibition |
| --- | --- | --- |
| Fc1cccc(CN2CCc3nc(Nc4ccc5c(c4)OCCO5)ncc3C2)c1F | inconclusive: 35.5 µM [inhibitor, single point] |  |
| Cc1cccc(N2CCN(C(=O)CCS(=O)(=O)c3ccc4c(c3)CC(=O)N4C)CC2C)c1 (stereo not drawn) |  | inactive: -12.1% |
| COC(=O)Nc1nc2ccc(SC(C)C)cc2[nH]1 | inconclusive: 35.5 µM [inhibitor, single point] |  |
| Cc1ccc(NC2CCCN(C(=O)c3ccccc3N3CCOCC3)C2)cc1C (stereo not drawn) | inconclusive: 7.08 µM [inhibitor, full curve] |  |
| COCCN(C(=S)Nc1ccc(C)c(C)c1)C(C)c1ccco1 (stereo not drawn) | inconclusive: 35.5 µM [inhibitor, single point] |  |
| Cc1ccc(NS(=O)(=O)c2ccc3c(c2)n(C)c(=O)n3C)c(C)c1 | inactive |  |
| Clc1cccc(CNCCCSc2nnnn2-c2ccccc2)c1 |  | inactive: -0.469% |
| S=C(c1cn(CCOc2cccc3ccccc23)c2ccccc12)N1CCCC1 |  | inactive: -10.9% |
| CN(C)Cc1nc2ccccc2c(=O)n1Cc1nc(C(C)(C)C)cs1 |  | inactive: -5.95% |
| CC(C)C(=O)Nc1cccc2nsnc12 | inconclusive: 17.8 µM [inhibitor, single point] |  |
| NCCCC[C@H]1CNC(=S)N1CC1(c2ccccc2)CC1 | inconclusive: 3.55 µM [inhibitor, partial curve, poor fit] |  |
| Cc1ccc(OCCC(=O)N(CC(=O)Nc2ccccc2C(F)(F)F)Cc2ccco2)cc1 | inconclusive: 35.5 µM [inhibitor, single point] |  |
| O=C(CSc1nc(Nc2ccccc2)c2ccccc2n1)c1ccc(Cl)cc1 |  | inactive: -7.1% |
| Cc1ccccc1Nc1c(-c2c[nH]c3ccccc23)nc2ccc(Cl)cn12 | inconclusive: 14.1 µM [inhibitor, partial curve, poor fit] |  |
| COc1ccccc1CN1C(=O)[C@@H]2Cc3c([nH]c4ccccc34)C(C)(C)N2C1=O | inconclusive: 35.5 µM [inhibitor, single point] |  |
| Cc1cc(Cl)c(OCCCNCc2ccccc2)c(Br)c1 | inconclusive: 6.31 µM [inhibitor, single point] |  |
| COc1cccc(CN(C(=O)Cc2c[nH]c3ccccc23)C(C(=O)NC2CCCCC2)c2ccc(C)o2)c1 (stereo not drawn) | active: 15.8 µM |  |
| CS(=O)(=O)N(CC(=O)Nc1ccc2c(c1)OCCO2)Cc1ccccc1 | inconclusive: 20 µM [inhibitor, single point] |  |
| CC(C(=O)NC(=O)NC1CCCCC1)N(C)CC(=O)Nc1ccc(F)c(F)c1F (stereo not drawn) | inconclusive: 35.5 µM [inhibitor, single point] |  |
| Cc1c(CNC2CCCCCC2)c(C(=O)O)c(C)n1Cc1cccc(Cl)c1 |  | inactive: -16.1% |
| CCCCOC(=O)n1c(=O)oc2ccc(S(=O)(=O)N3CCCCC3)cc21 | inconclusive: 35.5 µM [inhibitor, single point] |  |
| Oc1cccc(/C=N/NC(=S)Nc2cccnc2)c1O |  | inactive: -0.563% |

| Compound | Potency | activity, negative = inhibition |
| --- | --- | --- |
| CC(C)C[C@H]1CN([C@@H](CC(C)C)CN2CCCC2CN2C(=S)NC[C@@H]2Cc2ccc(O)cc2)C(=S)N1CC1CCCCC1 (stereo partly drawn) | inconclusive: 8.91 µM [inhibitor, partial curve, poor fit] |  |
| COc1ccc(CN(C)C(=O)Cn2cnc3c(SC)nc(N)nc32)cc1OC |  | inactive: 2.28% |
| CCOC(=O)c1c(C)[nH]c(C)c1S(=O)(=O)NCC(=O)Nc1cccc(Cl)c1 | inconclusive: 3.55 µM [inhibitor, full curve] |  |
| CCOC(=O)C1=C(C)N(CCCCCC(=O)O)C(=O)NC1c1ccccc1OC(=O)c1cccs1 (stereo not drawn) | inconclusive: 11.2 µM [inhibitor, single point] |  |
| Cc1ccc(SCC(=O)OCC(=O)N(C)CC(=O)Nc2ccccc2Cl)cc1 | inconclusive: 0.631 µM [inhibitor, partial curve] |  |
| CCOC(=O)c1c(S(=O)(=O)N2CCCC(C(=O)Nc3cccc(CC)c3)C2)c(C)n(CC)c1C (stereo not drawn) | inconclusive: 2.24 µM [inhibitor, partial curve, poor fit] |  |
| Fc1cccc(Cc2c(-c3ccc(Cl)cc3)nc3ccc(Cl)cn23)c1 |  | inactive: -4.59% |
| Cc1ccc(C(=O)N2CCCCC2)cc1NC1=C(Cl)C(=O)N(Cc2ccccc2)C1=O | inconclusive: 17.8 µM [inhibitor, single point] |  |
| CCC(C)[C@H]1CNCCN1CCCc1cc(OC)c(OC)c(OC)c1 (stereo partly drawn) |  | inactive: 3.17% |
| O=C(NCCSCc1ccccc1)c1ccccc1 | inconclusive: 14.1 µM [inhibitor, single point] |  |
| CSCCC(NC(=O)c1ccccc1Cl)C(=O)Nc1cccc(S(=O)(=O)N2CCCC2)c1 (stereo not drawn) |  | inactive: -0.791% |
| Fc1ccccc1-c1csc(-c2cccnc2)n1 | inconclusive: 3.16 µM [inhibitor, partial curve, poor fit] |  |
| COc1ccc(-c2cc(NC=O)c3ncc(-c4ccc(OC)c(OC)c4)n3c2)c(OC)c1 | inconclusive: 15.8 µM [inhibitor, single point] |  |
| COc1cccc(/C=N/NC(=O)c2c(C)nc3ccc(Br)cn23)c1O | inconclusive: 0.447 µM [inhibitor, full curve, poor fit] |  |
| COC(=O)c1c(NC(=O)/C=C/C(=O)O)sc(C)c1-c1ccc(C(C)C)cc1 | inconclusive: 35.5 µM [inhibitor, single point] |  |
| CCOC(=O)c1ccc(N2C(=O)c3n[nH]c(-c4ccco4)c3C2c2ccccc2OC)cc1 (stereo not drawn) | inconclusive: 3.98 µM [inhibitor, full curve, poor fit] |  |
| CCN(CC)c1ccc(NC(=S)NC(=O)c2ccco2)cc1 | inconclusive: 11.2 µM [inhibitor, single point] |  |
| Cc1nccc(-c2ccc3c(c2)OCO3)n1 |  | inactive: 25.6% |
| COc1ccc(CNC(=O)c2nn(C)c3c2CSc2ccccc2-3)cc1 | inconclusive: 35.5 µM [inhibitor, single point] |  |
| COC(=O)c1c(C)oc2ccc(N(C(=O)c3ccncc3)S(=O)(=O)c3ccc(Br)cc3)cc12 | inconclusive: 28.2 µM [inhibitor, partial curve, poor fit] |  |
| CCOc1ccc(NCCC(=O)c2ccc3c(c2)OCO3)cc1 | inconclusive: 11.2 µM [inhibitor, partial curve, poor fit] |  |
